Results on 29 compounds are retold here after ChEMBL document CHEMBL5606458, “ASAP - ZIKV NS2B-NS3 protease fluorescence single point” (2024).

What is called inhibition is the drop in the measured response relative to a control, in per cent.

This experiment deals with Nonstructural protein 3 (Zika virus) (UniProt A0A024AXB9).
The mark [1] stands for this setting: PRVABC59, Concentration 50.0 uM, Number of replicates 1.0.
Setting [2] is: PRVABC59, Concentration 10.0 uM, Number of replicates 1.0.
The mark [3] stands for this setting: PRVABC59, Concentration 15.0 uM, Number of replicates 1.0.

The campaign covered roughly 2,700 compounds. About 160 (5.9%) showed an effect of 50% or more. The list shows a part of the results.

Chain of UniProt A0A024AXB9 (A0A024AXB9 as listed by the source): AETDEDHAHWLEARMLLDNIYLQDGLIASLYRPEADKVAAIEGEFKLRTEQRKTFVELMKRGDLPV

Regarding `Cc1cn[nH]c1CNC(=O)[C@]1(c2ccc(F)cc2)CCCNC1`, the inhibition reads like this: (PRVABC59, Concentration 49.5 uM, Number of replicates 2.0, Standard deviation 0.6075306368947093 %) -1.57%; (PRVABC59, Concentration 99.01 uM, Number of replicates 2.0, Standard deviation 1.8661703506616794 %) -1.53%; (PRVABC59, Concentration 198.0 uM, Number of replicates 2.0, Standard deviation 3.178641642000431 %) -0.596%.

In the case of `O=Cc1ccc(N2CCC(C(=O)NC3CCN(Cc4ccccc4F)CC3)CC2)cc1`, the inhibition under setting [1] amounted to 30.5%.

As for `O=Cc1ccc(N2CCC(C(=O)N[C@H](c3ccccc3)C(F)(F)F)CC2)cc1`, the inhibition under setting [2] came out at 21.9%.

Regarding `COc1ccccc1CN(C(=O)C1CCN(c2ccc(C=O)cc2)CC1)C1CC1`, under setting [1], the inhibition turned out to be 22.9%. Regarding `COc1cc(C(=O)N[C@@H](C)C(=O)O)nc(N2CCNCC2)n1`, the inhibition (PRVABC59, Concentration 49.5 uM, Number of replicates 2.0, Standard deviation 3.0621707227487582 %) was -2.42%; the inhibition (PRVABC59, Concentration 99.01 uM, Number of replicates 2.0, Standard deviation 2.7922991833774398 %) was -4.48%; the inhibition (PRVABC59, Concentration 198.0 uM, Number of replicates 2.0, Standard deviation 4.213476922411081 %) is -5.18%. As to `Cn1cc(NC(=O)c2ccccc2C(F)(F)F)c(-c2cncnc2)n1`, the inhibition was -0.924% (PRVABC59, Concentration 49.5 uM, Number of replicates 2.0, Standard deviation 0.5843407664944392 %); -1.59% (PRVABC59, Concentration 99.01 uM, Number of replicates 2.0, Standard deviation 1.1605089640346764 %); -2.26% (PRVABC59, Concentration 198.0 uM, Number of replicates 2.0, Standard deviation 1.8442828705639565 %). For `COc1ncc(Br)cc1NC(=O)c1cc(Cl)ccc1NS(=O)(=O)c1ccc(Oc2ccccc2Cl)cc1`, the inhibition under setting [3] was determined as 22.9%. For the compound `O=Cc1ccc(N2CCC(C(=O)Nc3ccc(I)cn3)CC2)cc1`, the inhibition under setting [1] was 22.7%. Turning to `O=C(c1cc(Cl)ccc1NS(=O)(=O)c1ccc(Oc2ccccc2Cl)cc1)N1CCN(S(=O)(=O)N2CCOCC2)CC1`, under setting [3], the inhibition worked out at 12.2%. `O=Cc1ccc(N2CCC(C(=O)N3CCC(O)(Cc4ccccn4)CC3)CC2)cc1`: under setting [1], the inhibition came out at 25%. `Cn1cc(CNC(=O)c2ccccc2[C@@H]2CCCNC2)cn1`: the inhibition (PRVABC59, Concentration 49.5 uM, Number of replicates 2.0, Standard deviation 1.3820269413959925 %) was -1.82%; the inhibition (PRVABC59, Concentration 99.01 uM, Number of replicates 2.0, Standard deviation 1.129463511127855 %) is -0.227%; the inhibition (PRVABC59, Concentration 198.0 uM, Number of replicates 2.0, Standard deviation 0.6425212666298173 %) turned out to be 0.6%.

On to `Cc1ccc(CN(CCN(C)C)C(=O)c2cc(Cl)ccc2NS(=O)(=O)c2ccc(Oc3ccccc3Cl)cc2)s1`, for which the inhibition under setting [3] turned out to be 17.7%.

For the compound `Cc1cc(CO)c2cccc(Cc3ccccc3NC(=O)C(=O)c3ccco3)c2n1`, the inhibition (PRVABC59, Concentration 49.95 uM, Number of replicates 2.0, Standard deviation 1.1299050836597035 %) is -5.88% and the inhibition (PRVABC59, Concentration 99.9 uM, Number of replicates 2.0, Standard deviation 1.5981540207314013 %) was found to be 1.55%.

As for `Cc1cc(N)c2cc(Cl)cc(Cl)c2n1`, for the setting “PRVABC59, Concentration 99.9 uM, Number of replicates 2.0, Standard deviation 12.824277322413067 %”, the inhibition is -8.83%. As to `Cc1cc(CO)c2cccc(Cc3ccccc3NC(=O)CNC3CC3)c2n1`, the inhibition reads like this: (PRVABC59, Concentration 49.95 uM, Number of replicates 2.0, Standard deviation 1.7355748528989599 %) 6.05%; (PRVABC59, Concentration 99.9 uM, Number of replicates 2.0, Standard deviation 0.6769255915552903 %) 21.4%. As to `CN(Cc1ccccc1Br)C(=O)C1CCN(c2ccc(C=O)cc2)CC1`, the inhibition under setting [1] amounted to 24.1%.

For the compound `COc1ccccc1CN(CCCO)C(=O)C1CCN(c2ccc(C=O)cc2)CC1`, under setting [1], the inhibition came out at 23.9%. On the same count and under the same terms, the same measure for `O=Cc1ccc(N2CCC(C(=O)N(CC3CC3)C[C@H]3CCCO3)CC2)cc1`: 26.6%. For `CNC(=O)C[C@@H](C)NS(=O)(=O)c1ccc(Oc2ccccc2Cl)cc1`, the inhibition was -1.18% (PRVABC59, Concentration 49.5 uM, Number of replicates 2.0, Standard deviation 2.0401331432276226 %); 1.08% (PRVABC59, Concentration 99.01 uM, Number of replicates 2.0, Standard deviation 0.5602004425134 %); 4.53% (PRVABC59, Concentration 198.0 uM, Number of replicates 2.0, Standard deviation 2.0129592787515875 %).

`COc1cc(Cl)nc(NC(=O)c2cc(Cl)ccc2NS(=O)(=O)c2ccc(Oc3ccccc3Cl)cc2)n1`: the inhibition under setting [3] came to 23.2%. With `C[C@H](NC(=O)C1CCN(c2ccc(C=O)cc2)CC1)c1ccccc1-n1cccn1`, the inhibition under setting [2] amounted to 21.9%. With `Cc1ccc(CNC(=O)C2CCN(C(=O)c3cc(Cl)ccc3NS(=O)(=O)c3ccc(Oc4ccccc4Cl)cc3)CC2)cc1`, under setting [3], the inhibition was 17.7%. For `Cn1cc(CNC(=O)c2ccccc2-c2ccccn2)cn1`, the inhibition reads like this: (PRVABC59, Concentration 49.5 uM, Number of replicates 2.0, Standard deviation 2.966453080291244 %) -0.41%; (PRVABC59, Concentration 99.01 uM, Number of replicates 2.0, Standard deviation 3.2933350179161565 %) 0.283%; (PRVABC59, Concentration 198.0 uM, Number of replicates 2.0, Standard deviation 2.8479582272272292 %) 0.806%.

As for `CCOc1ccccc1CCNC(=O)c1cc(Cl)ccc1NS(=O)(=O)c1ccc(Oc2ccccc2Cl)cc1`, under setting [3], the inhibition stood at 9.83%.

In the case of `Cn1ccc(CN2CC[C@H](c3c[nH]c4ccccc34)C2)cc1=O`, the inhibition came out at 2.74% (PRVABC59, Concentration 49.5 uM, Number of replicates 2.0, Standard deviation 0.9869168424646743 %); 5.37% (PRVABC59, Concentration 99.01 uM, Number of replicates 2.0, Standard deviation 1.3893738957347146 %); 9.72% (PRVABC59, Concentration 198.0 uM, Number of replicates 2.0, Standard deviation 1.456023236095902 %). In the case of `O=C(NCCc1ccc(C(F)(F)F)cc1)c1cc(Cl)ccc1NS(=O)(=O)c1ccc(Oc2ccccc2Cl)cc1`, under setting [3], the inhibition was 30.1%. As for `O=Cc1ccc(N2CCC(C(=O)Nc3ccc(Oc4ccccc4Cl)cc3)CC2)cc1`, under setting [1], the inhibition is 11.4%. Turning to `CCN(CC)C1CCN(C(=O)C2CCN(c3ccc(C=O)cc3)CC2)CC1`, the inhibition under setting [1] is 24.4%. Regarding `COc1cc(COc2cncnc2)nc(N2CCNCC2)n1`, the inhibition runs as follows: (PRVABC59, Concentration 49.5 uM, Number of replicates 2.0, Standard deviation 1.9988225514114575 %) 2.77%; (PRVABC59, Concentration 99.01 uM, Number of replicates 2.0, Standard deviation 1.7792629273662002 %) 7.32%; (PRVABC59, Concentration 198.0 uM, Number of replicates 2.0, Standard deviation 2.2100977909134136 %) 16.6%.
